# Data as given in PubChem BioAssay (NCATS).
# Values joined by “and” are separate entries in the source; they are usually repeats but may differ in a detail not shown here. Identical values can stand only once. Inconclusive means that the source gave no clear call. Such entries were picked first, then a sample of the others. Potencies beside an inconclusive call are fits to weak or partial responses and may not hold up. Active and inactive are the calls of the source. Calls come from the whole dose curve; as a rule, active = well fitted curve in the direction sought with a large enough effect; inconclusive = small, poorly fitted or top-dose-only effect, or another doubt; inactive = no such curve, though single readings can be large; an effect the other way counts as inactive or inconclusive.
# Experiment: qHTS of pediatric cancer cell lines to identify multiple opportunities for drug repurposing: Primary screen for DAOY cells (AID 1347090); note: nearly all actives have a fitted effect of over 55% in size
# Conditions: DAOY medulloblastoma viability, CellTiter-Glo luminescence, 48 h; activity change, negative = cytotoxic: at 46 µM (top of the series)
# Method in brief: (§1)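 Eight- or eleven-point concentration series, 48 h treatment at 37 degrees C in growth media; readout CellTiter-Glo luminescence. Potency and efficacy were taken from the concentration-response curves.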
# Potency is the fitted concentration of half-maximal effect; tags give direction and shape of the fitted curve.
row,SMILES,Potency
1,CN1[C@H]2CC(O)C[C@H]1[C@H]1O[C@H]12 (some centres undefined),"inconclusive: 29.6 µM [cytotoxic, single point]"
2,Fc1ccc(C(OCCN2CCN(CCCc3ccccc3)CC2)c2ccc(F)cc2)cc1,"inconclusive: 21.1 µM [cytotoxic, single point]"
3,C[C@@H]1[C@@H](CC(C[C@H]2O[C@@H]3O[C@]4(C)CC[C@@H]5[C@H](C)CC[C@@H]([C@H]2C)[C@@]35OO4)C[S+](=O)([O-])c2ccc(COC(=O)N(C)C)cc2)O[C@@H]2O[C@]3(C)CC[C@H]4[C@H](C)CC[C@@H]1[C@@]24OO3 (some centres undefined),"inconclusive: 0.935 µM [cytotoxic, full curve]"
4,Nc1ccc(N=Nc2ccccc2)cc1,"inconclusive: 48.6 µM [cytotoxic, single point]"
5,Clc1ccc(CSC(Cn2ccnc2)c2ccc(Cl)cc2Cl)cc1 (centres undefined),"inconclusive: 26.6 µM [cytotoxic, single point]"
6,CNC(=O)N1N=C(c2ccc(N)cc2)c2cc3c(cc2CC1C)OCO3 (centres undefined),"inconclusive: 14.8 µM [cytotoxic, partial curve]"
7,O=c1[nH]c2ccccc2n1C1CCN(CCCC(c2ccc(F)cc2)c2ccc(F)cc2)CC1,"inconclusive: 26.6 µM [cytotoxic, single point]"
8,COc1ccc(C(=O)c2c(C)n(CCN3CCOCC3)c3cc(I)ccc23)cc1,active: 18.7 µM
9,CC[C@H](O)C(C[C@H](C)N(C)C)(c1ccccc1)c1ccccc1,"inconclusive: 69.9 µM [cytotoxic, partial curve, poor fit]"

# Experiment: qHTS of pediatric cancer cell lines to identify multiple opportunities for drug repurposing: Primary screen for SJ-GBM2 cells (AID 1347091);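 for activity change, negative = cytotoxic: plate controls were DMSO neutral control for no effect and bortezomib for full effect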
# Conditions: SJ-GBM2 viability, CellTiter-Glo luminescence, 48 h; series mostly up to 46 µM; activity change, negative = cytotoxic: at the top concentration
# Method in brief: as §1
SMILES,"activity change, negative = cytotoxic",Potency
COc1ccccc1N1CCNCC1,inactive: 2.62%,
COC1=C[C@@H]2[C@@H]3Cc4ccc(OC)c(O)c4[C@]2(CCN3C)CC1=O,,"inconclusive: 23.5 µM [cytotoxic, partial curve, poor fit]"
C[C@H](CN1CCOCC1)C(C(=O)N1CCCC1)(c1ccccc1)c1ccccc1,,"inconclusive: 93.7 µM [cytotoxic, single point]"
C[C@](O)(CS(=O)(=O)c1ccc(F)cc1)C(=O)Nc1ccc(C#N)c(C(F)(F)F)c1,,active: 3.72 µM
Cc1sc2c(c1C)C(c1ccc(Cl)cc1)=N[C@@H](CC(=O)OC(C)(C)C)c1nnc(C)n1-2,,active: 2.64 µM
C[C@H]1O[C@@H](O[C@H]2[C@@H](O)C[C@H](O[C@H]3[C@@H](O)C[C@H](O[C@H]4CC[C@@]5(C)[C@H](CC[C@@H]6[C@@H]5CC[C@]5(C)[C@@H](C7=CC(=O)OC7)CC[C@]65O)C4)O[C@@H]3C)O[C@@H]2C)C[C@H](O)[C@@H]1O,,"inconclusive: 0.133 µM [cytotoxic, full curve, poor fit]"
CC(O)(CS(=O)(=O)c1ccc(F)cc1)C(=O)Nc1ccc(C#N)c(C(F)(F)F)c1 (centres undefined),,"inconclusive: 26.4 µM [cytotoxic, single point]"
CN(C)C(=S)SSC(=S)N(C)C,,"inconclusive: 33.5 µM [cytotoxic, single point]"
C[C@@H]1[C@@H](CC(C[C@H]2O[C@@H]3O[C@]4(C)CC[C@@H]5[C@H](C)CC[C@@H]([C@H]2C)[C@@]35OO4)C[S+](=O)([O-])c2ccc(COC(=O)N(C)C)cc2)O[C@@H]2O[C@]3(C)CC[C@H]4[C@H](C)CC[C@@H]1[C@@]24OO3 (some centres undefined),,active: 0.469 µM
Nc1ccc(N=Nc2ccccc2)cc1,,"inconclusive: 30.6 µM [cytotoxic, partial curve]"
Clc1ccc(CSC(Cn2ccnc2)c2ccc(Cl)cc2Cl)cc1 (centres undefined),,"inconclusive: 23.7 µM [cytotoxic, single point]"
CC(C)(O)C(=O)Nc1ccc([N+](=O)[O-])c(C(F)(F)F)c1,,"inconclusive: 5.9 µM [cytotoxic, partial curve, poor fit]"
c1ccc2c(c1)OCC(C1=NCCN1)O2 (centres undefined),,"inconclusive: 33.5 µM [cytotoxic, single point]"
CC(=O)[O][Hg][c]1ccccc1,,"inconclusive: 26.6 µM [cytotoxic, single point]"
O=c1[nH]c2ccccc2n1C1CCN(CCCC(c2ccc(F)cc2)c2ccc(F)cc2)CC1,,"inconclusive: 29.9 µM [cytotoxic, single point]"
N=c1c2c(-c3ccccc3)c(-c3ccccc3)n(Cc3ccccc3)c2ncn1C1CCC(O)CC1 (centres undefined),,active: 18.7 µM

# Experiment: qHTS of pediatric cancer cell lines to identify multiple opportunities for drug repurposing: Primary screen for A673 cells (AID 1347092); note: nearly all actives have a fitted effect of over 45% in size; for activity change, negative = cytotoxic: % is set by controls: 0 for no effect and ±100 for the full control effect
# Conditions: A673 Ewing sarcoma viability, CellTiter-Glo ATP luminescence, 48 h; activity change, negative = cytotoxic: at 46 µM (top of the series) unless noted
# Method in brief: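 Cell viability of A673 measured by CellTiter-Glo ATP luminescence after 48 hours compound exposure. Dilution series spanned 0.78 nM to 46 µM (MIPE, 11-point) or 0.59 nM to 46 µM (NPC, 8-point); bortezomib 2.3 uM positive control.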
SMILES,Potency,"activity change, negative = cytotoxic"
COC1=C[C@@H]2[C@@H]3Cc4ccc(OC)c(O)c4[C@]2(CCN3C)CC1=O,active: 1.48 µM,
C[C@H](CN1CCOCC1)C(C(=O)N1CCCC1)(c1ccccc1)c1ccccc1,"inconclusive: 83.5 µM [cytotoxic, partial curve, poor fit]",
COc1ccc(Cc2nccc3cc(OC)c(OC)cc23)cc1OC,"inconclusive: 16.8 µM [cytotoxic, single point] and inconclusive: 29.6 µM [cytotoxic, single point]",
Cc1sc2c(c1C)C(c1ccc(Cl)cc1)=N[C@@H](CC(=O)OC(C)(C)C)c1nnc(C)n1-2,active: 0.469 µM,
C[C@H]1CCCC=CC2C[C@H](O)C[C@@H]2[C@H](O)C=CC(=O)O1 (some centres undefined),,inconclusive: -100%
CC(O)(CS(=O)(=O)c1ccc(F)cc1)C(=O)Nc1ccc(C#N)c(C(F)(F)F)c1 (centres undefined),active: 1.18 µM,
O=c1[nH]c2ccccc2n1C1CCN(Cc2ccc(-c3[nH]c4cc5ncnc5cc4nc3-c3ccccc3)cc2)CC1,"inconclusive: 4.69 µM [cytotoxic, full curve]",
CN1[C@H]2CC(O)C[C@H]1[C@H]1O[C@H]12 (some centres undefined),active: 18.7 µM,
Fc1ccc(C(OCCN2CCN(CCCc3ccccc3)CC2)c2ccc(F)cc2)cc1,"inconclusive: 26.6 µM [cytotoxic, single point]",
C[C@@H]1[C@@H](CC(C[C@H]2O[C@@H]3O[C@]4(C)CC[C@@H]5[C@H](C)CC[C@@H]([C@H]2C)[C@@]35OO4)C[S+](=O)([O-])c2ccc(COC(=O)N(C)C)cc2)O[C@@H]2O[C@]3(C)CC[C@H]4[C@H](C)CC[C@@H]1[C@@]24OO3 (some centres undefined),"inconclusive: 0.469 µM [cytotoxic, full curve]",
CNC(=O)N1N=C(c2ccc(N)cc2)c2cc3c(cc2CC1C)OCO3 (centres undefined),"inconclusive: 7.43 µM [cytotoxic, partial curve]",
CC(=O)[O][Hg][c]1ccccc1,active: 0.106 µM,
O=c1[nH]c2ccccc2n1C1CCN(CCCC(c2ccc(F)cc2)c2ccc(F)cc2)CC1,"inconclusive: 21.1 µM [cytotoxic, single point]",
CC[C@H](O)C(C[C@H](C)N(C)C)(c1ccccc1)c1ccccc1,"inconclusive: 44.1 µM [cytotoxic, single point]",
